# The source gives no read counts; variants with many changes may rest on few reads.
# B1: LINE1-mini (parent)
# chain: GGCAGAGCUCAACACAGCGUGGCAAAGUGGCUGUGGCUAGACUGCC
# Variants of: B1
# Experiment: self-cleavage, relative activity (ratio to wild type); higher = more cleavage; in vitro, sequencing; the parent is a self-cleaving ribozyme
row,Variant,self-cleavage
1,GCCAGAGCUCGACACAGCGUGGCCAAGUGUCUGUGGCUAUCCUGCA [G2C A11G A24C G30U G40U A41C C46A],0.01
2,GCCAGAGCUCGAUACAGCGUGGCAACGUGGCUGUGGUUAGACUGCC [G2C A11G C13U A26C C37U],0.03
3,GCCAGAGCUCGACAAAGCGUGGUAAAGUGGCUGUGGCUAGAAUGCC [G2C A11G C15A C23U C42A],0
4,GCCAGAGCUCGACACAGCGUGGCAAAGUGGUUGUGGCUAGACUGCC [G2C A11G C31U],0.02
5,GCCAGAGCUCGACACAGCGUGGCAAAGUGGCUGUGGCUAGACUGUC [G2C A11G C45U],0.02
6,GCCAGAGCUCGACACAUCGUGGCAAAGUGGCUGUGGCUAGACCGCC [G2C A11G G17U U43C],0.01
7,GCCAGAGCUCGACACAGCGUGCCAAAGUGGCUGUGGCUAGACUGCC [G2C A11G G22C],0.01
8,GCCAGAGCUCGACACAGCGUGGCAAAGUGACUGUGGCUAGACUGCC [G2C A11G G30A],0.01
9,GCCAGAGCUCGACACAGCGUGGCAAAGUGACUAUGGCUAGACUGCC [G2C A11G G30A G33A],0.01
10,GCCAGAGCUCGACACAGCGUGGCAAAGUGCCUGUGGCUAGACUGCC [G2C A11G G30C],0.02
11,GCCAGAGCUCGACACAGCGUGGCAAAGUGUCUGUGGCUAGACUGCC [G2C A11G G30U],0.02
12,GCCAGAGCUCGACACAGCGAGGUAAGGUGGCUGUGGCUAGACUGCC [G2C A11G U20A C23U A26G],0.01
13,GCCAGAGCUCUACACAGCGUGGCUAAGUGGCUGUGGCUAGACUGCC [G2C A11U A24U],0.03
14,GCCAGAGCUCUACACAGCGUGGCAAGGUGGCUGUGGCUAGACUCCC [G2C A11U A26G G44C],0
15,GCCAGAGCUCUAAACAGCGUGGCAAAGUGGCUGAGGCUAGACUGCC [G2C A11U C13A U34A],0.02
16,GCCAGAGCUCUACAAAGCGUGGCAAAGUAGCUGUGACUAGACUGCC [G2C A11U C15A G29A G36A],0.01
17,GCCAGAGCUCUACACAGCGUGGCAAAGUGGCUGUGGAUAUACUGCC [G2C A11U C37A G40U],0.01
18,GCCAGAGCUCUACACAUCGUGGCAAAGUGGCUGUGGCUAGACGACC [G2C A11U G17U U43G G44A],0
19,GCCAGAGCUCUACACAGCGUGGCAAAGUAGCUGUGGCUAGACUGCC [G2C A11U G29A],0.04

row,Variant,self-cleavage
1,GCCAGAGCUCUACACAGCGUGGCAAAGUGGCUAUGGCUAGACUGCU [G2C A11U G33A C46U],0.01
2,GCCAGAGCUCUACACAGCGUGGCAAAGGGGCUGUGGCUAUACUGCC [G2C A11U U28G G40U],0.01
3,GCCAGAGCUCUACACAGCGUGGCAAAGUGGCCGUGGCUAGACGGCC [G2C A11U U32C U43G],0.01
4,GCCAGAGCUCACCACUGCGUCGCAAAGUGGCUGUGGCUAGACUGGC [G2C A12C A16U G21C C45G],0.01
5,GCCAGAGCUCACCACAGCGUGGCAAAGUGCCUGUGGCUCGACUGCC [G2C A12C G30C A39C],0.02
6,GCCAGAGCUCACCACAGCGUGGCAAAGUGGCUGUGGCUACACUGCC [G2C A12C G40C],0.01
7,GCCAGAGCUCACCACAGCGUGGCAAAGUGGCUGAGGCAAGACUGCC [G2C A12C U34A U38A],0.01
8,GCCAGAGCUCAGCCCAGCGUGGCAAAGUGGCCGUGGCUAGCAUGCC [G2C A12G A14C U32C A41C C42A],0.19
9,GCCAGAGCUCAGCUCAGCGUGGCAAAGUGGCUGUGGCUAGACUGCC [G2C A12G A14U],0.02
10,GCCAGAGCUCAGGUCAGCGUGAUAAAGUGGCUGUGGCUCGACUGCC [G2C A12G C13G A14U G22A C23U A39C],0.01
11,GCCAGAGCUCAGCAAAGCGUGGCAAAGUGUCUGUGGCUAGACUGCC [G2C A12G C15A G30U],0.02
12,GCCAGAGCUCAGCACAUCGUGGCAAAGUGGCUGUGGCUAGACUGCC [G2C A12G G17U],0.04
13,GCCAGAGCUCAGCACAGCGUAGCAAAGUGGCUGUGGCUAGCCUGCC [G2C A12G G21A A41C],0.03
14,GCCAGAGCUCAGCACAGCGUCGCAAAGUGGCUGUGGCUAGACUGCC [G2C A12G G21C],0.03
15,GCCAGAGCUCAGCACAGCGUGGCAAAAUGGCUGUGGCUAGACUGCC [G2C A12G G27A],0.03
16,GCCAGAGCUCAGCACAGCGUGGCAAAGUGGCUGAGGCUAGACUGCC [G2C A12G U34A],0.01
17,GCCAGAGCUCAUCACUGCGUGGCAACGUGGGUGUGGCGAGACUGCC [G2C A12U A16U A26C C31G U38G],0.01
18,GCCAGAGCUCAUCACUGCGUGGCAAAGUUGCUCUGGCUAUACUGCC [G2C A12U A16U G29U G33C G40U],0.04
19,GCCAGAGCUCAUGACAGCGUGGCAAAGUGGCUGUGGCUAGACUGAC [G2C A12U C13G C45A],0.04

row,Variant,self-cleavage
1,GCCAGAGCUCAUCACAGCGUGGGAAAGUGGCUGUGGCUAGACUGCC [G2C A12U C23G],0.02
2,GCCAGAGCUCAUCACAGCGUGGUAAAGUGGCUGCGGCUAGUCUGCC [G2C A12U C23U U34C A41U],0.03
3,GCCAGAGCUCAUCACAGCAUGGCAAAGUGGCUGUGGCUAGACUGCA [G2C A12U G19A C46A],0.05
4,GCCAGAGCUCAUCACAGCGUGCCAAAAUUGCUGUGGCUAGACUGCC [G2C A12U G22C G27A G29U],0.05
5,GCCAGAGCUCAUCACAGCGUGGCAAAGUGCCUGUGGCUAGACUGGC [G2C A12U G30C C45G],0.03
6,GCCAGAGCUCAACCCGGCGUGGCACAGUCGCUGUGGCUAGACUGCC [G2C A14C A16G A25C G29C],0.06
7,GCCAGAGCUCAACCCGGCGUGGCAAAGUGGCUGUGGCUUGACUGCC [G2C A14C A16G A39U],0.01
8,GCCAGAGCUCAACCCAGCGUGGCUAAGUGGCUGUGGAUAGACAGCC [G2C A14C A24U C37A U43A],0
9,GCCAGAGCUCAACCCAUGGUGGCAAAGUGGCUGUGGCUACACUGCC [G2C A14C G17U C18G G40C],0.04
10,GCCAGAGCUCAACCCAGCGUGACAGACUGGCUGUGGCUAGACUGUC [G2C A14C G22A A25G G27C C45U],0.04
11,GCCAGAGCUCAACCCAGCGUGGCAAAAUGGCUGUGGCUAGAGUGCC [G2C A14C G27A C42G],0.03
12,GCCAGAGCUCAACCCAGCGUGGCAAAGUGGCAGUGGCUAGACAGCC [G2C A14C U32A U43A],0.03
13,GCCAGAGCUCAACCCAGCGUGGCAAAGUGGCUGUGGCUAGACAGCU [G2C A14C U43A C46U],0.06
14,GCCAGAGCUCAACGCAGUGUGGCAAAGUGGCUGUGGCUAGACUGCC [G2C A14G C18U],0.01
15,GCCAGAGCUCAACGCAGCGUGGCAAAUUGGCUGUGGCUAGACAGCC [G2C A14G G27U U43A],0.01
16,GCCAGAGCUCAACUCUACGUCGCAAAGUGGCUGUGGCUAGACUGCC [G2C A14U A16U G17A G21C],0.07
17,GCCAGAGCUCAACUCAGCGUGGCAAAGUGGCUGUGGCUAGCCUGCC [G2C A14U A41C],0.01
18,GCCAGAGCUCAACUAAGCGUUGCAGAGUGGCUGUGGCUAGACUGCC [G2C A14U C15A G21U A25G],0.02

# Reference: the RNAGym collection of RNA variant scans (doi:10.7554/elife.90254)
